# From publication PMC4336329 (PLoS ONE, 2015)
# The whole screen tested about 310,000 compounds, of which about 2,200 (0.71%) showed an effect of 50% or more. Effects have a minus sign here. Some of the results follow.
# Biological target: human ether-à-go-go-related gene (hERG) potassium channel (human, UniProt Q12809)
# Assay: primary screen, population patch clamp on CHO cells stably expressing hERG
# Sequence of human ether-à-go-go-related gene (hERG) potassium channel (Q12809 whole entry, looked up): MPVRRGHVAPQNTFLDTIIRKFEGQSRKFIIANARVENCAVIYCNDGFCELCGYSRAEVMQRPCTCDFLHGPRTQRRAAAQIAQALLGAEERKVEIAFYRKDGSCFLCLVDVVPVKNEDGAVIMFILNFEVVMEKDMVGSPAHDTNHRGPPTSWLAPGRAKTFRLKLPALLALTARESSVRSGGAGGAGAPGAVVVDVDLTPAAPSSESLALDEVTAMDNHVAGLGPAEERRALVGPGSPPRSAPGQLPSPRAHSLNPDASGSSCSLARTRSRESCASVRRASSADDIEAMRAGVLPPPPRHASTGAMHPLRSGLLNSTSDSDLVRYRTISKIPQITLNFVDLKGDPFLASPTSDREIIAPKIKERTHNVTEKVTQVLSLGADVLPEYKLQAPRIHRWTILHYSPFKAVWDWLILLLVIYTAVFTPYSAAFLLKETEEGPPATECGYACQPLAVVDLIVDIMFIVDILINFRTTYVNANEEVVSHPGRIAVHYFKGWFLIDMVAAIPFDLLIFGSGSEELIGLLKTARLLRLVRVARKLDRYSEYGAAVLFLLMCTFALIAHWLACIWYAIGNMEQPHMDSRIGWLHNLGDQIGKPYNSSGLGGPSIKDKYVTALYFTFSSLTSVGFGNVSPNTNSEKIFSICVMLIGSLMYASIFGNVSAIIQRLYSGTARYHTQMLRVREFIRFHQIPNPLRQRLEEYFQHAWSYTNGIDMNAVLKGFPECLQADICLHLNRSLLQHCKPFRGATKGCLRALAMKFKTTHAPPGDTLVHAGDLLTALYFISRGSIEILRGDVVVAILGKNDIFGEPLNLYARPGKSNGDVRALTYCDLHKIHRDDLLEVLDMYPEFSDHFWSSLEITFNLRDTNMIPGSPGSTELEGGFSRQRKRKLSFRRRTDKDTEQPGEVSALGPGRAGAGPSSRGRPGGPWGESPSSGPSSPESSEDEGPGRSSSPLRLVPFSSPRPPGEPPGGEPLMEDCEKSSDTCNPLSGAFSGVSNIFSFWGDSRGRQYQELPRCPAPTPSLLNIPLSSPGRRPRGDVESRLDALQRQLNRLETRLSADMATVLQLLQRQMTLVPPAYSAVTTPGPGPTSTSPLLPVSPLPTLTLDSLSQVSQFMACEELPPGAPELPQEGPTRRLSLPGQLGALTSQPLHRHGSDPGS
row,SMILES,"hERG current change (%, negative = inhibition) at 1uM [%]"
1,COc1ccccc1C(=O)NNc1ncc(C)s1.Cl,18.9
2,O=C(O)CSc1nnc(-c2ccc(Cl)cc2Cl)n1-c1ccccc1,12.7
3,CC(C)N1CC(C(=O)O)CC1=O (stereo not drawn),13.6
4,C=CCNC(=S)N1CCN(c2ccccc2Cl)CC1,7.12
5,CN(C(=O)c1ccc(NC(=O)Cc2cccc(NC(=O)C3CCCN(C(=O)C4CCC4)C3)c2)cc1)C1CCCC1 (stereo not drawn),0.975
6,Cc1c(NC(=S)NC(=O)c2sc3ccccc3c2Cl)cccc1C(=O)O,8.19
7,COc1cccc(CNC(=O)c2ccc(Cl)c(S(=O)(=O)N3CCOCC3)c2)c1,-1.87
8,Clc1ccc2c(NNc3ccccc3Cl)ccnc2c1,11
9,CC(CCc1ccccc1)NC(=O)/C=C/c1ccc(Cl)cc1 (stereo not drawn),1.87
10,Cc1ccc(NS(=O)(=O)c2ccc(OCC(=O)N3CCN(C)CC3)cc2)cc1,8.15
11,Clc1ccc(-c2nnc(C34CC5CC(CC(C5)C3)C4)o2)cn1,1.2
12,CC1CCC(NC(=O)CCn2ccc3cc(S(=O)(=O)N4CCCC4)ccc32)CC1 (stereo not drawn),8.73
13,COC(=O)C(Cc1ccccc1)NC(=O)CC(C)CC(=O)Nc1ccc(OC)cc1OC (stereo not drawn),12.3
14,CCOC(=O)C1(CC2CC2)CCN(Cc2ccc(OC)cc2F)CC1,-73.3
15,CC(C)(C)CN1CCC(n2nccc2NC(=O)c2ccccc2Cl)CC1,4.68
16,Cc1ccc(C(=O)Nc2nc3ccccc3[nH]2)cc1,4.96
17,COc1ccc(NC(C)=O)cc1S(=O)(=O)N(C)Cc1c(C)nn(-c2ccccc2)c1C,-0.103
18,CC(Sc1nc(NC(C)(C)C)nc(N(C)C)n1)C(=O)Nc1ccccc1 (stereo not drawn),3.82
19,CCC1=C(OC(=O)N(CC)CC)N2C(=O)OC(=NCC(=O)OC)[C@]2(C)[C@H]2C1=CC[C@H]1C(=O)N(C)C(=O)[C@H]12,-6.57
20,CCN(CC)C(=O)n1cnc(-c2ccccc2)c1-c1ccccc1,13
21,O=C(NC1CCN(S(=O)(=O)c2ccc(F)cc2)CC1)c1cccc(F)c1,9.77
22,COc1ccc(NC(=S)NCC(c2cccnc2)N2CCOCC2)cc1 (stereo not drawn),9.85

row,SMILES,"hERG current change (%, negative = inhibition) at 1uM [%]"
1,CC(C)NC(=O)CN1CCN(C(=O)CCl)CC1.Cl,16.2
2,Cc1ccc(C(O)Cn2cc([N+](=O)[O-])nc2C)cc1 (stereo not drawn),8.73
3,O=C(Nc1ccccc1C(=O)N1CCOCC1)c1ccc([N+](=O)[O-])cc1,16
4,NC(=O)CC(NC(=O)Cc1ccc(Cl)cc1)c1ccc(NCCOc2ccccc2)c([N+](=O)[O-])c1 (stereo not drawn),13.5
5,CCc1ccc(OCCOCC(O)CNC2CCCC2)cc1.Cl (stereo not drawn),7.22
6,CCn1c(=O)n(CC(=O)NCC2CCCO2)c(=O)c2c3c(sc21)COC(C)(C)C3 (stereo not drawn),15.2
7,CN(C(=O)COC(=O)c1ccc(Cl)cc1N)C1CCS(=O)(=O)C1 (stereo not drawn),-4.72
8,Cc1cccc(C)c1NC(=O)CN(C)C(=O)c1cc(S(=O)(=O)N2CCOCC2)ccc1N1CCCC1,0.446
9,O=C(N/C(=C/c1ccc(Cl)cc1)c1nc2ccccc2[nH]1)c1ccco1,14.2
10,COCCNC(=O)c1onc(CSc2ccc(F)cc2)c1C(=O)NCCOC,11
11,CCOc1cc(C)ccc1OCc1nnc(SCC(=O)c2cccc([N+](=O)[O-])c2)n1C,3.38
12,O=C(O)C(=O)O.O=S(=O)(c1ccc(F)cc1)N1CCC(N2CCCCCC2)CC1,-14.5
13,CCOc1ccc(Br)cc1CSC(=N)N.Cl,1.41
14,COc1cc2c(c(OC)c1OC)-c1ccc(O)c(=O)cc1[C@@H](N)CC2,-4.4
15,CC(C)C(=O)N1CCN(c2ccccc2NC(=O)c2cc([N+](=O)[O-])ccc2N2CCOCC2)CC1,-46.5
16,Cc1cc(NC(=O)CSc2nnc(-c3ccncc3)n2-c2ccc(F)cc2)no1,6.42
17,Cc1ccc(Cn2ncc3c(N4CCN(C)CC4)ncnc32)cc1,-0.522
18,O=C(O)CCC(=O)NN1C(=O)c2ccccc2NC1c1ccc(F)cc1 (stereo not drawn),6.84
19,CC(=O)c1ccc(S(=O)(=O)N2CCCCC2C(=O)O)cc1 (stereo not drawn),17
20,CC(C)CC(=O)Nc1ccc2c(c1)nc(CCN1CCOCC1)n2C,22.8
21,CC(C)C(=O)Nc1ccccc1C(=O)N/N=C/c1ccc([N+](=O)[O-])cc1,8.38
22,O=C1NC(=O)c2cc3ccccc3cc21,-11.5

row,SMILES,"hERG current change (%, negative = inhibition) at 1uM [%]"
1,O=C(Nc1cccc2c1CCCC2)c1ccccc1Br,13.6
2,COc1ccc(CCNC(=O)CSc2ncc(C(=O)Nc3ccccc3)c(=O)n2C)cc1,4.73
3,Cc1cc(NC(=O)CN2CCC(C)CC2)no1.O=C(O)C(=O)O,14.4
4,O=C(Nc1ccccc1C(=O)N1CCOCC1)c1ccc(Cl)cc1,11.1
5,Cc1cc(-c2ccc(C(C)C)c(S(=O)(=O)N3CCN(c4ccccn4)CC3)c2)on1,13.9
6,COc1ccc2[nH]cc(CCNC(=S)NCCc3ccccc3)c2c1,2.33
7,CCOC(=O)c1cc2c3ccccc3n(CC)c2nc1N,4.58
8,CCn1cc(C(=O)N[C@H](C(=O)O)C(C)C)c(=O)c2cc3c(cc21)OCO3,1.07
9,COc1cccc(-c2csc3nnc(SCC(=O)c4ccc(NC(C)=O)cc4)n23)c1,-1.87
10,CCN(CC)C(=O)Cn1cnc2ccccc2c1=O,2.42
11,O=C(CN1CCN(c2ccccn2)CC1)Nc1cccc(S(=O)(=O)N2CCCC2)c1,9
12,CCNC(=O)NC(=O)COC(=O)CCCSc1nc2ccccc2[nH]1,2.85
13,Cc1cc(C(=O)OCC(=O)Nc2nnc(C(C)C)s2)c2ccccc2n1,2.79
14,O=S(=O)(Nc1ccc(Cc2ccncc2)cc1)c1ccc(Cl)s1,8.56
15,CCOc1ccc(C(=O)CCC(=O)Nc2cccc(S(=O)(=O)N3CCCCC3)c2)cc1,0.0843
16,COc1ccccc1NC(=O)c1ccc2c(c1)nnn2C,10.8
17,CCONC(=O)Nc1ccccc1[N+](=O)[O-],13.4
18,COc1ccccc1NC(=O)C1CCCN(C(=O)NCc2ccccc2)C1 (stereo not drawn),9.96
19,Cc1ccc(NCC(=O)N/N=C/c2cccn2C)cc1,15.2
20,CCN(CC(=O)NC(C)C)C(=O)C(CCSC)NC(=O)c1ccccc1OC (stereo not drawn),8.89
21,O=c1c2ccccc2nc(SCc2nnc(-c3ccccc3)o2)n1-c1ccc(F)cc1F,13.4
22,COC(=O)c1ccc(CSc2nc3ccc(S(=O)(=O)N4CCOCC4)cc3[nH]2)cc1,7.46

row,SMILES,"hERG current change (%, negative = inhibition) at 1uM [%]"
1,O=C(N/N=C/c1ccc(Br)s1)c1cccc([N+](=O)[O-])c1,12.4
2,Cn1c(SCC(=O)OC2CCCCC2)nnc1-c1ccc2c(c1)OCO2,-3.53
3,Cc1ccc(S(=O)(=O)n2ccc3cccnc32)cc1,9.37
4,COc1ccc(-c2ccc(SCC(=O)NC3CCCCC3)nn2)cc1OC,14.8
5,CCOC(=O)N1CCN(C(=O)c2ccc(N3C(=O)CCC3=O)cc2)CC1,-2.82
6,CC(C)CN(CCCNC(=O)CN1C(=O)COc2ccc(S(=O)(=O)N3CCCC3)cc21)CC(C)C,19
7,Cc1ncc(C[n+]2csc(CCOC(=O)CC34CC5CC(CC(C5)C3)C4)c2C)c(N)n1.Cl.[Cl-],7.2
8,CNC(=O)c1ccc(NC(=O)CN2c3cccc4cccc(c34)S2(=O)=O)cc1,9.49
9,COc1ccc(OC)c(C2=NOC(C(=O)NCCN3CCOCC3)C2)c1 (stereo not drawn),3.42
10,COc1ccc(CCNC(=O)C2CCN(S(=O)(=O)c3ccc(NC(C)=O)cc3)CC2)cc1OC,9.66
11,Cc1cccc(N2C(=O)N3[C@@H]4c5ccccc5OC[C@@H]4[C@@H](c4ccccc4)[C@]3(C)C2=O)c1,7.05
12,CCC(C(=O)NCCc1ccccc1)c1ccccc1 (stereo not drawn),9.68
13,Cc1cc(-c2cccnc2)c(C#N)c(SCc2cccc(F)c2)n1,-2.48
14,Cc1nc2ccccn2c1-c1csc(Nc2ccc(C(=O)O)cc2)n1,14.1
15,Cc1nc2cc(NC(=O)NCCCO)ccc2o1,10.6
16,CCCOc1ccc(C(CC(=O)O)NC(=O)CC(c2ccccc2)c2ccccc2)cc1 (stereo not drawn),11.1
17,COc1ccc(OC)c(S(=O)(=O)NC(C)c2ccc(-n3ccnc3)cc2)c1 (stereo not drawn),3.86
18,O=C(/C=C\c1cccs1)N1CCN(Cc2ccc3c(c2)OCO3)CC1,-8.92
19,O=[N+]([O-])c1cc(S(=O)(=O)N2CCCCC2)ccc1NCc1cccc(Cl)c1,9.01
20,Cc1ccc(-c2n[nH]c(=S)n2-c2ccccc2)cc1,5.34
21,Cn1c(CN2CCCC2)c(C#N)c2ccccc21,7.43
